Patent publication US20240376204A1 (JIANGSU HENGRUI PHARMACEUTICALS, published 2024)

Tests used:
[1] = target: T1, human PVRIG expressed on cells (human, UniProt Q6DKI7 41-326); assay: cell-based or functional assay
T1 sequence (looked up): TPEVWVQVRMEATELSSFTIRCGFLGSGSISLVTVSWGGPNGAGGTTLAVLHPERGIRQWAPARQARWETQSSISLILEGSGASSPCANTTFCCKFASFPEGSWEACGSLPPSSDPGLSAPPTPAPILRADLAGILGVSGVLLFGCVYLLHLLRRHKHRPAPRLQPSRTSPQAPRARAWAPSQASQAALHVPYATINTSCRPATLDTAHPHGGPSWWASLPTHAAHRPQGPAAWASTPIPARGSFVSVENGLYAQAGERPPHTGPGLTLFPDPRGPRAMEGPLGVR

[2] = target: T1, human PVRIG expressed on cells; assay: cell-based or functional assay; remark: listed apart in the source
[3] = target: T2, human PD-1 expressed on cells (human, UniProt Q15116 25-288); assay: cell-based or functional assay
[4] = target: T3, human PD-1 antigen protein (Sino Biological, 10377-H08H) (human, UniProt Q15116 partial chain); assay: SPR (Biacore 8K), antibody captured by anti-human Fc, PD-1 as analyte
T3 construct: Bought construct

[5] = target: T4, cynomolgus monkey PD-1 antigen protein (Sino Biological, 90311-C08H) (cynomolgus monkey, UniProt B0LAJ3 25-170); assay: as above
T4 construct: not shown: The tag of the vendor's product (Sino Biological 90311-C08H, probably a C-terminal poly-His)
T4 sequence (B0LAJ3 entry or part of it C08H C08H limits assumed): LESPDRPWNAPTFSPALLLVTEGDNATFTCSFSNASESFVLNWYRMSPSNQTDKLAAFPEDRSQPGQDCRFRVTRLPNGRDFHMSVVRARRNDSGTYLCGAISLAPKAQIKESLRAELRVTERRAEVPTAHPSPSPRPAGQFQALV

[6] = target: T2, human PD-1 expressed on cells; assay: cell-based or functional assay; remark: listed apart in the source
T2 sequence (Q15116 25-288 limits assumed): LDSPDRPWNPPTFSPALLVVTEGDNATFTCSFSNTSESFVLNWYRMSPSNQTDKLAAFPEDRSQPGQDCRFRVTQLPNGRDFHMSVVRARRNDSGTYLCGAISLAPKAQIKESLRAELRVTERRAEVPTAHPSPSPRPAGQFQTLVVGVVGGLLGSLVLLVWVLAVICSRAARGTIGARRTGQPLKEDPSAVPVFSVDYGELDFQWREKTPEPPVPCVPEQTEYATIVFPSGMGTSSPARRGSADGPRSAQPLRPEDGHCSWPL

[7] = target: T2, human PD-1 expressed on cells; assay: cell-based or functional assay; remark: listed apart in the source
[8] = target: T2, human PD-1 expressed on cells; assay: cell-based or functional assay; remark: listed apart in the source
[9] = target: T2, human PD-1 expressed on cells; assay: FACS, Jurkat cells overexpressing human PD-1
[10] = target: T5, Human PD-1 protein (His Tag) (human, UniProt Q15116 partial chain); assay: ELISA, plate coated with human PD-1 (his tag)
T5 construct: also called human PD-1 (his tag); His-tagged human PD-1; not shown: His tag
Procedure: The plate was coated with the antigen overnight at 4° C. […] PBST/1% BSA solution was added, and the plate was incubated at 37° C. for 1 h for blocking. […] The plate was washed with PBST solution three times. […] After three washes with PBST solution, TMB solution was added at 100 μL/well. After 5 min of reaction at room temperature, 50 μL of stop solution was added.

B2: A17m09_hIgG4 (Fc fusion)
chain: EVQLQESGGGLVQPGGSLRLSCTASGLTFSDYSMSWYRQAPGKGRELVAIISGSGVITHYVDSVKGRFTISRDNAKNTVYLQMRSLTPEDRAVYYCRAVSDWEDYWGQGTQVTVSS[gap - human IgG4 Fc with S228P (EU numbers)]
IC50, PD-1/PD-L1 NFAT reporter gene system [3]: 0.772 nM | Kd [4]: 3.56 nM | koff [4]: 0.00163 s⁻¹ | kon [4]: 458000 M⁻¹ s⁻¹ | Kd [5]: 1.75 nM | koff [5]: 0.000843 s⁻¹ | kon [5]: 481000 M⁻¹ s⁻¹ | IC50, PD-1/PD-L1 NFAT reporter gene system [6]: 1.08 nM | EC50, IFN-γ in DC:T mix lymphocyte reaction [7]: 0.293 nM

B5: A17_hIgG4 (Fc fusion)
chain: B2 chain with L4V, Q5V, T23V, G44E, T58A, N77S, R84V, T87K, A92G, E103D
notes: VHH-Fc antibody, human IgG4 Fc with hinge and S228P; also called A17_IgG4
IC50, PD-1/PD-L1 NFAT reporter gene system [8]: 1.2 nM | EC50 [9]: 0.357 nM | EC50 [10]: 0.061 nM

B6: A17m0901_hIgG4 (Fc fusion)
chain: B2 chain with Q5V, T23A, L27F, V79L, T87R, P88A, R91T
Kd [4]: 6.44 nM | koff [4]: 0.00192 s⁻¹ | kon [4]: 297000 M⁻¹ s⁻¹ | Kd [5]: 3.32 nM | koff [5]: 0.00113 s⁻¹ | kon [5]: 340000 M⁻¹ s⁻¹ | IC50, PD-1/PD-L1 NFAT reporter gene system [6]: 0.531 nM

B8: A17h1_hIgG4 (Fc fusion)
chain: B2 chain with T58A, A75S, E103D
notes: also called A17h1_IgG4
IC50, PD-1/PD-L1 NFAT reporter gene system [3]: 0.696 nM | Kd [4]: 2.02 nM | koff [4]: 0.000868 s⁻¹ | kon [4]: 430000 M⁻¹ s⁻¹ | Kd [5]: 1.82 nM | koff [5]: 0.000807 s⁻¹ | kon [5]: 444000 M⁻¹ s⁻¹ | IC50, PD-1/PD-L1 NFAT reporter gene system [6]: 1.04 nM

B9: A6_hIgG4 (Fc fusion)
chain: EVQLVESGGGLVQAGGSLRLSCAVSGRTFSSAAMGWFRQAPGKEREFVAAISWSFGSTYYADSVKGRFTISRDNAKNTVYLQMNSLKPEDTAVYYCAADPSIETMGGGWDYWGQGTQVTVSS[gap - human IgG4 Fc with S228P (EU numbers)]
notes: VHH-Fc antibody, human IgG4 Fc with hinge and S228P; also called A6_IgG4
IC50, PD-1/PD-L1 NFAT reporter gene system [8]: 1.35 nM | EC50 [9]: 1.09 nM | EC50 [10]: 0.0861 nM

More lines, now with the values ahead:

PVRIG reporter gene cell activity EC50 [1]: 0.04 nM | IFNγ, mixed lymphocyte reaction, 4 nM antibody [2]: 1500 pg/mL | IFNγ, mixed lymphocyte reaction, 20 nM antibody [2]: 2220 pg/mL | IFNγ, mixed lymphocyte reaction, 100 nM antibody [2]: 1800 pg/mL
B1: anti-PVRIG nanobody 151 (full length) (Fc fusion)
chain: HVQLVESGGGSVQAGGSLRLSCVASASGFTYRPYCMAWFRQAPGKEREAVAGIDIFGGTTYADSVKGRFTASRDNAGFSLFLQMNDLKPEDTAMYYCAAGDSPDGRCPPLGQGLNYWGQGTQVTVSS[gap - human IgG4 Fc with S228P F234A L235A (EU numbers)]

IC50, PD-1/PD-L1 NFAT reporter gene system [6]: 1.28 nM
B3: A17m0903_hIgG4 (Fc fusion)
chain: B2 chain with Q5V, T23A, T87R, P88A, R91T

IC50, PD-1/PD-L1 NFAT reporter gene system [6]: 0.559 nM
B4: A17m0905_hIgG4 (Fc fusion)
chain: B2 chain with Q5V, T23A, T87R, P88A

Kd [4]: 6.09 nM | koff [4]: 0.00177 s⁻¹ | kon [4]: 291000 M⁻¹ s⁻¹ | Kd [5]: 3.28 nM | koff [5]: 0.00108 s⁻¹ | kon [5]: 328000 M⁻¹ s⁻¹ | IC50, PD-1/PD-L1 NFAT reporter gene system [6]: 0.435 nM
B7: A17m0902_hIgG4 (Fc fusion)
chain: B2 chain with Q5V, T23A, V79L, T87R, P88A, R91T

PVRIG reporter gene cell activity EC50 [1]: 0.06 nM | IFNγ, mixed lymphocyte reaction, 4 nM antibody [2]: 1680 pg/mL | IFNγ, mixed lymphocyte reaction, 20 nM antibody [2]: 1910 pg/mL | IFNγ, mixed lymphocyte reaction, 100 nM antibody [2]: 1580 pg/mL
B10: anti-PVRIG nanobody 30 (full length) (Fc fusion)
chain: HVQLVESGGGSVQAGGSLRLSCEASGYSYSGDCMGWFRRAPGKERDEGVATIDNAGRIKYADSVKGRFTISHGNGKYILYLQMNSLKPEDTDMYYCAAGWTFGGNCSPADWGQGTQVTVSS[gap - human IgG4 Fc with S228P F234A L235A (EU numbers)]

Positions count from the first letter of the chain named. In names and notes the source's numbering stands. Like-named read-outs stand apart in the source and are kept apart here. One block for each binder: values may come before it.
